The series is described as follows: xn = mol fraction of the nth substance listed. The settings on record: 283.15 K, 101 kPa.

This passage reports mass density results from a compilation of properties of binary mixtures (doi:10.1080/00319104.2013.782546).

Usually mass density stands for the mass of a sample divided by its volume.

Some of these densities may be calculated back from excess volumes.

Consider `CCCCCC[n+]1ccn(C)c1.O=S(=O)([N-]S(=O)(=O)C(F)(F)F)C(F)(F)F` + Cc1ccccc1, for which the mass density is 1385.9 kg/m3 (x2 = 0); 1378.1 kg/m3 (x2 = 0.0492); 1351 kg/m3 (x2 = 0.2018); 1300.8 kg/m3 (x2 = 0.4026); 1269.4 kg/m3 (x2 = 0.4983); 1095.9 kg/m3 (x2 = 0.811).

With `Cc1cccc(C)c1` + CCC[n+]1cccc(C)c1.O=S(=O)([N-]S(=O)(=O)C(F)(F)F)C(F)(F)F, the mass density (x1 = 1) was 872.7 kg/m3.

As to `c1ccccc1` + CCC[n+]1cccc(C)c1.O=S(=O)([N-]S(=O)(=O)C(F)(F)F)C(F)(F)F, where the note is “x1 = 1”, the mass density was found to be 889.6 kg/m3.

As to `Cc1ccc(C)cc1` + CCOS(=O)(=O)[O-].CC[n+]1cccc(C)c1, the mass density (x1 = 1) is listed as 869.6 kg/m3.

As to `Cc1ccccc1` + CC[n+]1cccc(C)c1.O=S(=O)([N-]S(=O)(=O)C(F)(F)F)C(F)(F)F, where the note is “x1 = 1”, the mass density was determined as 876.1 kg/m3.

`CCC[n+]1cccc(C)c1.O=S(=O)([N-]S(=O)(=O)C(F)(F)F)C(F)(F)F` + Cc1ccccc1 came in with a mass density (x2 = 0) of 1461.7 kg/m3; a mass density (x2 = 0.1) of 1440.3 kg/m3; a mass density (x2 = 0.1979) of 1417 kg/m3; a mass density (x2 = 0.5118) of 1310.5 kg/m3; a mass density (x2 = 0.6041) of 1264.5 kg/m3; a mass density (x2 = 0.6579) of 1233.4 kg/m3. For the same molecule, the mass density (x2 = 0.6846) is recorded as 1216.2 kg/m3 and the mass density (x2 = 0.7178) is 1193.1 kg/m3.

As for `CC[n+]1cccc(C)c1.O=S(=O)([N-]S(=O)(=O)C(F)(F)F)C(F)(F)F` + Cc1ccccc1, the mass density by setting is: (x2 = 0) 1503.1 kg/m3; (x2 = 0.0484) 1492.1 kg/m3; (x2 = 0.1002) 1479.5 kg/m3; (x2 = 0.2005) 1452 kg/m3; (x2 = 0.4093) 1379.8 kg/m3; (x2 = 0.4915) 1344.2 kg/m3. Further, the mass density runs as follows: (x2 = 0.6565) 1250.5 kg/m3; (x2 = 0.6882) 1228.4 kg/m3; (x2 = 0.7161) 1207.6 kg/m3.

`CCOS(=O)(=O)[O-].CC[n+]1cccc(C)c1` + Cc1ccccc1C gave a mass density (x2 = 0) of 1230.7 kg/m3; a mass density (x2 = 0.0495) of 1222.1 kg/m3; a mass density (x2 = 0.1048) of 1212.4 kg/m3; a mass density (x2 = 0.1561) of 1201.7 kg/m3; a mass density (x2 = 0.2007) of 1192.4 kg/m3; a mass density (x2 = 0.232) of 1186.9 kg/m3. The mass density (x2 = 0.2524) is 1182.4 kg/m3.

Regarding `CCc1ccccc1` + CCOS(=O)(=O)[O-].CC[n+]1cccc(C)c1, the mass density (x1 = 1) was 875.7 kg/m3.

`CCCCCC[n+]1ccn(C)c1.O=S(=O)([N-]S(=O)(=O)C(F)(F)F)C(F)(F)F` + Cc1ccc(C)cc1: the mass density came out at 1376.2 kg/m3 (x2 = 0.0523); 1365.7 kg/m3 (x2 = 0.1037); 1341.5 kg/m3 (x2 = 0.2121); 1317.4 kg/m3 (x2 = 0.3063); 1285.3 kg/m3 (x2 = 0.4102); 1203.5 kg/m3 (x2 = 0.6086). The molecule also showed a mass density (x2 = 0.6619) of 1175.7 kg/m3 and a mass density (x2 = 0.702) of 1152 kg/m3.

As to `CC[n+]1ccn(C)c1.O=S(=O)([N-]S(=O)(=O)C(F)(F)F)C(F)(F)F` + Cc1cccc(C)c1, the mass density is, setting by setting: (x2 = 0.0473) 1519.6 kg/m3; (x2 = 0.0479) 1519.6 kg/m3; (x2 = 0.1005) 1502.6 kg/m3; (x2 = 0.1992) 1467.9 kg/m3; (x2 = 0.3004) 1427.9 kg/m3; (x2 = 0.3968) 1384.8 kg/m3. Moreover, the mass density is 1373.2 kg/m3 (x2 = 0.42) and 1351.8 kg/m3 (x2 = 0.462).

Take `c1ccccc1` + CCOS(=O)(=O)[O-].CC[n+]1cccc(C)c1: for the setting “x1 = 1”, the mass density was 889.6 kg/m3.

The molecule `CC[n+]1cccc(C)c1.O=S(=O)([N-]S(=O)(=O)C(F)(F)F)C(F)(F)F` + Cc1cccc(C)c1 displayed a mass density (x2 = 0) of 1503.1 kg/m3; a mass density (x2 = 0.0511) of 1489.1 kg/m3; a mass density (x2 = 0.0972) of 1476.1 kg/m3; a mass density (x2 = 0.2) of 1444 kg/m3; a mass density (x2 = 0.3014) of 1408.2 kg/m3; a mass density (x2 = 0.4038) of 1365 kg/m3. In addition, the mass density was 1346.7 kg/m3 (x2 = 0.4441); 1319.9 kg/m3 (x2 = 0.4999); 1307.4 kg/m3 (x2 = 0.5239); 1295.4 kg/m3 (x2 = 0.5446); 1276.7 kg/m3 (x2 = 0.5784).

Turning to `CCc1ccccc1` + CC[n+]1ccn(C)c1.O=S(=O)([N-]S(=O)(=O)C(F)(F)F)C(F)(F)F, the mass density (x1 = 1) worked out at 875.7 kg/m3.

Turning to `CC[n+]1cccc(C)c1.O=S(=O)([N-]S(=O)(=O)C(F)(F)F)C(F)(F)F` + Cc1ccc(C)cc1, the mass density runs as follows: (x2 = 0) 1503.1 kg/m3; (x2 = 0.0509) 1489.4 kg/m3; (x2 = 0.1039) 1473.9 kg/m3; (x2 = 0.3013) 1408 kg/m3; (x2 = 0.4029) 1366.2 kg/m3; (x2 = 0.5037) 1316.2 kg/m3. The mass density (x2 = 0.5268) came out at 1303.7 kg/m3.

Molecule `c1ccccc1` + CCCCCC[n+]1ccn(C)c1.O=S(=O)([N-]S(=O)(=O)C(F)(F)F)C(F)(F)F registered a mass density (x1 = 1) of 889.6 kg/m3.

For the molecule `CC[n+]1cccc(C)c1.O=S(=O)([N-]S(=O)(=O)C(F)(F)F)C(F)(F)F` + Cc1ccccc1C, the mass density is given as 1503.1 kg/m3 (x2 = 0); 1490 kg/m3 (x2 = 0.051); 1476.4 kg/m3 (x2 = 0.1001); 1446.7 kg/m3 (x2 = 0.1983); 1412.5 kg/m3 (x2 = 0.2975); 1370.8 kg/m3 (x2 = 0.4008). The mass density by setting is: (x2 = 0.5039) 1322.7 kg/m3; (x2 = 0.6025) 1268.4 kg/m3.

As to `CC[n+]1ccn(C)c1.O=S(=O)([N-]S(=O)(=O)C(F)(F)F)C(F)(F)F` + c1ccccc1, the mass density was 1524.5 kg/m3 (x2 = 0.045); 1512.9 kg/m3 (x2 = 0.0962); 1487.8 kg/m3 (x2 = 0.1942); 1419.3 kg/m3 (x2 = 0.4104); 1380.9 kg/m3 (x2 = 0.5024); 1325 kg/m3 (x2 = 0.6084). Also, the mass density is, setting by setting: (x2 = 0.6993) 1262.7 kg/m3; (x2 = 0.7329) 1235.9 kg/m3.

Molecule `CCc1ccccc1` + CCC[n+]1cccc(C)c1.O=S(=O)([N-]S(=O)(=O)C(F)(F)F)C(F)(F)F displayed a mass density (x1 = 1) of 875.7 kg/m3.
